# Counter-ions that a name gives are not always drawn. Some of the results follow. Cut-off read from the data, not from the text of the source: active = 0.5 or less and inactive = the rest. Many values rest on one well or one pass, so single values are uncertain.
# What was measured:
# Details in all cases: 50 µM; 24 h
# [1] = test system: HeLa VPS33A reporter cells; experiment: relative cell viability (CellMask signal) vs DMSO (fraction of DMSO); higher = less cytotoxic;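 note: primary screen of an FDA-approved drug library in HeLa reporter cells in 96-well format, CellMask signal normalized to DMSO-treated wells set as 1, under 0.5 deemed highly cytotoxic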
# [2] = test system: HeLa VPS33A R498W KI + HA-SDC1-FLAG; experiment: relative GAG core protein HA-SDC1 amount per cell number vs DMSO (fraction of DMSO); higher = more SDC1 (GAG core protein);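 note: HA-SDC1 level read out by In-Cell Western staining with an anti-HA antibody against the N-terminal tag, screening FDA-approved library drugs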
# [3] = test system: HeLa VPS33A KO + NLuc-VPS33A R498W; experiment: relative mutant VPS33A R498W amount (NanoLuc luminescence) vs DMSO (fraction of DMSO); HeLa model of a glycosaminoglycan (GAG) storage disease; KI is knock-in and KO knock-out; SDC1 is syndecan 1; higher = higher mutant VPS33A level;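 note: screen of an FDA-approved drug library, NanoLuc luminescence read after lysing the treated cells, taken as a measure of mutant VPS33A protein stability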
Structure (SMILES),relative cell viability [1],relative GAG core protein HA-SDC1 amount per cell number [2],relative mutant VPS33A R498W amount [3]
CC(C)Cc1ccc(C(C)C(=O)O)cc1 (centres undefined) [Ibuprofen Lysine],0.956,inactive: 1.49,1.26
NC(=O)N1c2ccccc2CC(=O)c2ccccc21 [Oxcarbazepine],1.08,inactive: 0.832,1.31
Cc1ccc(NC(=O)C2(c3ccc4c(c3)OC(F)(F)O4)CC2)nc1-c1cccc(C(=O)O)c1,1.34,inactive: 1.39,1.62
NCCc1c[nH]cn1 [Histamine 2HCl],1.07,inactive: 1.07,1.49
COCCCOc1cc(C[C@@H](C[C@H](N)[C@@H](O)C[C@H](C(=O)NCC(C)(C)C(N)=O)C(C)C)C(C)C)ccc1OC [Aliskiren Hemifumarate],1.03,inactive: 1.16,0.94
C#Cc1cccc(Nc2ncnc3cc(OC)c(OCCCCCCC(=O)NO)cc23)c1,0.988,inactive: 0.745,6.35
NS(=O)(=O)c1cc2c(cc1Cl)NC(C(Cl)Cl)NS2(=O)=O (centres undefined) [Trichlormethiazide],0.949,inactive: 0.845,1.54
OCc1ccccc1O[C@@H]1O[C@H](CO)[C@@H](O)[C@H](O)[C@H]1O [D-(-)-Salicin],1.02,inactive: 0.961,1.33
O=C1NCC2(CCN(CCc3ccccc3)CC2)O1 [Fenspiride HCl],0.849,inactive: 1.11,1.46
CCN(CC)CCNC(=O)c1cc(Cl)c(N)cc1OC [Metoclopramide],1.03,inactive: 1.66,1.32
Cc1cccc(N(C)C(=S)Oc2ccc3ccccc3c2)c1 [Tolnaftate],1.16,inactive: 0.746,1.09
Cc1ccc(-n2nc(C(C)(C)C)cc2NC(=O)NCc2cc(F)ccc2Oc2ccc3c(cnn3CCO)c2)cc1 [Pexmetinib (ARRY-614)],1.09,inactive: 0.599,0.31
C[N+]1(C)CCC(=C(c2ccccc2)c2ccccc2)CC1 [Diphemanil Methylsulfate],1.23,inactive: 0.813,0.529
Cn1ncnc1[C@H]1c2n[nH]c(=O)c3cc(F)cc(c23)N[C@@H]1c1ccc(F)cc1,1.13,inactive: 0.889,0.588
O=C(N[C@H](CO)[C@H](O)c1ccc([N+](=O)[O-])cc1)C(Cl)Cl [Chloramphenicol],1.17,inactive: 1.36,0.843
CC(=O)O[C@H]1C[C@@H]2CC[C@@H]3[C@H](CC[C@@]4(C)[C@H]3C[C@H]([N+]3(C)CCCCC3)[C@@H]4OC(C)=O)[C@@]2(C)C[C@@H]1N1CCCCC1 [Vecuronium Bromide],1.01,inactive: 1.31,1.48
CCCSc1ccc2[nH]c(NC(=O)OC)nc2c1 [Albendazole],0.535,inactive: 0.743,0.582
CCOC(=O)C1=C[C@@H](OC(CC)CC)[C@H](NC(C)=O)[C@@H](N)C1 [Oseltamivir phosphate],0.891,inactive: 0.924,1.37
O=C(O)CNC(=O)c1ccccc1 [hippurate],1.07,inactive: 0.809,1.05
O=c1ccn([C@H]2C[C@H](O)[C@@H](CO)O2)c(=O)[nH]1 [2-Deoxyuridine],1.02,inactive: 0.91,1.41
C#CCC(Cc1cnc2nc(N)nc(N)c2n1)c1ccc(C(=O)N[C@@H](CCC(=O)O)C(=O)O)cc1 (some centres undefined) [Pralatrexate],0.972,inactive: 0.809,0.382
COc1ccc(CNc2nc(N3CCC[C@H]3CO)ncc2C(=O)NCc2ncccn2)cc1Cl [Avanafil],1.06,inactive: 1.37,0.948
CC(C(=O)O)c1ccc(-c2ccccc2)c(F)c1 (centres undefined) [Flurbiprofen],1.07,inactive: 1.11,0.996
Cc1nc2n(c(=O)c1CCN1CCC(c3noc4cc(F)ccc34)CC1)CCCC2O (centres undefined) [Paliperidone],1.05,inactive: 1.07,0.911
N=C(N)c1ccc2cc(OC(=O)c3ccc(N=C(N)N)cc3)ccc2c1 [Nafamostat Mesylate(FUT-175)],0.989,inactive: 0.863,0.648
O=C(/C=C/c1ccc(O)c(O)c1)O[C@H](Cc1ccc(O)c(O)c1)C(=O)O [Rosmarinic acid],1.02,inactive: 1.03,1.34
O=C(O)Cc1ccccc1Nc1c(Cl)cccc1Cl [Diclofenac Potassium],0.986,inactive: 0.584,0.725

Structure (SMILES),relative cell viability [1],relative GAG core protein HA-SDC1 amount per cell number [2],relative mutant VPS33A R498W amount [3]
CC(C(=O)O)c1cccc(Oc2ccccc2)c1 (centres undefined) [Fenoprofen Calcium],1.02,inactive: 0.906,0.955
O=C1OC2(c3ccc(O)cc3Oc3cc(O)ccc32)c2ccccc21 [Fluorescein],1.02,inactive: 1.06,1.18
C[C@H]1[C@H](C)CC[C@]2(C(=O)O[C@@H]3O[C@H](CO[C@@H]4O[C@H](CO)[C@@H](O[C@@H]5O[C@H](C)[C@H](O)[C@@H](O)[C@H]5O)[C@H](O)[C@H]4O)[C@@H](O)[C@H](O)[C@H]3O)CC[C@]3(C)C(=CC[C@@H]4[C@@]5(C)C[C@@H](O)[C@H](O)[C@@](C)(CO)[C@@H]5CC[C@]43C)[C@H]12 [Asiaticoside],0.944,inactive: 0.938,1.47
OC[C@H]1O[C@@H](O[C@H]2[C@H](O)[C@@H](O)C(O)O[C@@H]2CO)[C@H](O)[C@@H](O)[C@@H]1O (mixture of isomers) [Cellobiose],1.13,inactive: 0.951,1.02
CSCC[C@H](N)C(=O)O [L-Methionine],0.969,inactive: 0.777,0.793
"CCCS(=O)(=O)Nc1ccc(F)c(C(=O)c2c[nH]c3ncc(-c4ccc(Cl)cc4)cc23)c1F [Vemurafenib (PLX4032, RG7204)]",1.35,inactive: 1.14,0.989
N[C@H](CO)C(=O)O,1.13,inactive: 1.25,1.3
C#CCN[C@@H]1CCc2ccccc21 [Rasagiline],1.06,inactive: 0.868,1.19
COc1ccccc1O [Guaiacol],1.1,inactive: 0.944,1.22
N=C(N)NCCCC[C@@H]1NC(=O)CCSSC[C@@H](C(N)=O)NC(=O)[C@@H]2CCCN2C(=O)[C@H](Cc2c[nH]c3ccccc23)NC(=O)[C@H](CC(=O)O)NC(=O)CNC1=O [Eptifibatide],1.05,inactive: 0.847,1.26
"CC[C@H](Nc1ncnc2[nH]cnc12)c1nc2cccc(F)c2c(=O)n1-c1ccccc1 [CAL-101 (Idelalisib, GS-1101)]",1.09,inactive: 0.875,0.533
O=C(C[S+]([O-])Cc1ccco1)NC/C=C\COc1cc(CN2CCCCC2)ccn1 (centres undefined) [Lafutidine],0.978,inactive: 1.06,1.61
CC1(C)O[C@@H]2C[C@H]3[C@@H]4CCC5=CC(=O)CC[C@]5(C)[C@@]4(F)[C@@H](O)C[C@]3(C)[C@]2(C(=O)CCl)O1 [Halcinonide],0.804,inactive: 1.23,1.23
CN1CC(=O)N2[C@H](c3ccc4c(c3)OCO4)c3[nH]c4ccccc4c3C[C@@H]2C1=O [Tadalafil],1.16,inactive: 1.18,1.13
C=CCNC1=C2C[C@@H](C)C[C@H](OC)[C@H](O)[C@@H](C)/C=C(\C)[C@H](OC(N)=O)[C@@H](OC)/C=C\C=C(/C)C(=O)NC(=CC1=O)C2=O,0.865,inactive: 0.521,0.00584
NCCS [Cysteamine HCl],0.993,inactive: 0.682,1.05
CC(=O)OC/C=C(C)/C=C/C=C(C)/C=C/C1=C(C)CCCC1(C)C [Vitamin A Acetate],0.536,active: 0.351,1.95
O=C1CC[C@@H](C(=O)N2CSC[C@H]2C(=O)O)N1 [Pidotimod],0.913,inactive: 1.08,1.59
CC(C)Cc1ccc(C(C)C(=O)O)cc1 (centres undefined) [Ibuprofen],1.07,inactive: 1.27,0.953
Nc1nc(Cl)nc2c1ncn2[C@H]1C[C@H](O)[C@@H](CO)O1 [Cladribine],1.39,inactive: 0.876,0.927
O=c1ccn([C@@H]2O[C@H](CO)[C@@H](O)[C@H]2O)c(=O)[nH]1 [Uridine],1.05,inactive: 0.952,1.21
Cc1cccc(Nc2ccncc2S(=O)(=O)NC(=O)NC(C)C)c1 [Torsemide],1.04,inactive: 0.819,1.27
CN1[C@@H]2CC[C@H]1C[C@@H](OC(=O)c1c[nH]c3ccccc13)C2 [Tropisetron],1.06,inactive: 0.895,1.11
OC(Cn1cncn1)(Cn1cncn1)c1ccc(F)cc1F [Fluconazole],0.999,inactive: 0.802,1.35
CN(C)C(=O)COC(=O)Cc1ccc(OC(=O)c2ccc(NC(=N)N)cc2)cc1 [Camostat Mesilate],0.981,inactive: 0.948,1.91
N#CC1(c2ccc(NC(=O)c3cccnc3NCc3ccncc3)cc2)CCCC1 [Apatinib],0.984,inactive: 0.638,0.299
